The list shows a part of the results. Sequences were assembled here from the parent chain. Values near 0.05 are background.
B1: TEV protease; numbered along this chain (parent)
chain: MGESLFKGPRDYNPISSSICHLTNESDGHTTSLYGIGFGPFIITNKHLFRRNNGTLVVQSLHGVFKVKDTTTLQQHLVDGRDMIIIRMPKDFPPFPQKLKFREPQREERICLVTTNFQTKSMSSMVSDTSCTFPSGDGIFWKHWIQTKDGQCGSPLVSTRDGFIVGIHSASNFTNTNNYFTSVPKNFMELLTNQEAQQWVSGWRLNADSVLWGGHKVFMVKPEEPFQPVKEATQL

Variants of: B1
Test: raw area under fraction-flipped curve 0-4 h after induction (AUC4h, not background-subtracted), DNA-recorder readout of cleavage of the substrate (dimensionless); higher = more cleavage of the substrate by the protease variant
Details: temperature: 34 °C; time window: 0-4 h after rhamnose induction
Method: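 In vivo DNA recorder in E. coli TOP10(DE3) ΔrhaA at 34 °C. Each TEVp single-site mutant (parent TEVp 0) is paired with a single-site variant of the 7-mer TEVs (canonical ENLYFQ|S). The substrate sits between flexible linkers in a Bxb1-sfGFP-TEVs-SsrA fusion, so cleavage stabilises Bxb1 and speeds flipping of a recombination array, read by NGS. The value is the raw area under the fraction-flipped curve over 0-4 h after rhamnose induction (AUC4h), with ≥20 reads per time point. It is not background-subtracted; inactive controls average about 0.047.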
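Further: Bxb1 expression induced with 0.2% (w/v) L-rhamnose at OD600 near 0.5, cultures sampled hourly, flipped fraction per protease–substrate barcode pair counted by paired-end Illumina sequencing.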

Variant	area with substrate ENAYFQS	area with substrate ENCYFQS	area with substrate ENDYFQS	area with substrate ENEYFQS	area with substrate ENFYFQS	area with substrate ENGYFQS	area with substrate ENIYFQS	area with substrate ENMYFQS	area with substrate ENNYFQS	area with substrate ENPYFQS	area with substrate ENQYFQS	area with substrate ENRYFQS	area with substrate ENSYFQS	area with substrate ENTYFQS	area with substrate ENVYFQS	area with substrate ENWYFQS	area with substrate ENYYFQS	area with substrate ENHYFQS	area with substrate ENKYFQS
MGESLFKGPRDYNPISSSICHLTNESDGHTTSLYGIGFGPFIITNKELFRRNNGTLVVQSLHGVFKVKDTTTLQQHLVDGRDMIIIRMPKDFPPFPQKLKFREPQREERICLVTTNFQTKSMSSMVSDTSCTFPSGDGIFWKHWIQTKDGQCGSPLVSTRDGFIVGIHSASNFTNTNNYFTSVPKNFMELLTNQEAQQWVSGWRLNADSVLWGGHKVFMVKPEEPFQPVKEATQL [H47E]	0.0533	0.0625	0.0569	0.0509	0.0604	0.0696	0.0637	0.0585	0.0622	0.0739	0.0607	0.0615	0.0582	0.0617	0.0736	0.0403	0.0628	–	–
MGESLFKGPRDYNPISSSICHLTNESDGHTTSLYGIGFGPFIITNKCLFRRNNGTLVVQSLHGVFKVKDTTTLQQHLVDGRDMIIIRMPKDFPPFPQKLKFREPQREERICLVTTNFQTKSMSSMVSDTSCTFPSGDGIFWKHWIQTKDGQCGSPLVSTRDGFIVGIHSASNFTNTNNYFTSVPKNFMELLTNQEAQQWVSGWRLNADSVLWGGHKVFMVKPEEPFQPVKEATQL [H47C]	0.0533	0.0599	0.0649	0.0701	0.0714	0.061	–	0.0689	–	0.0518	0.0525	–	0.0651	–	–	0.0551	–	0.0663	0.0542
MGESLFKGPRDYNPISSSICHLTNESDGHTTSLYGIGFGPFIISNKHLFRRNNGTLVVQSLHGVFKVKDTTTLQQHLVDGRDMIIIRMPKDFPPFPQKLKFREPQREERICLVTTNFQTKSMSSMVSDTSCTFPSGDGIFWKHWIQTKDGQCGSPLVSTRDGFIVGIHSASNFTNTNNYFTSVPKNFMELLTNQEAQQWVSGWRLNADSVLWGGHKVFMVKPEEPFQPVKEATQL [T44S]	0.053	0.0754	0.0583	0.0535	0.052	0.0558	0.102	0.0648	–	0.055	0.0471	0.0573	0.0615	0.0594	0.0954	–	–	0.0734	0.0604
MGESLFKGPRDYNPISSSICHLTNESDGHTTSLYGIGFGPFIIPNKHLFRRNNGTLVVQSLHGVFKVKDTTTLQQHLVDGRDMIIIRMPKDFPPFPQKLKFREPQREERICLVTTNFQTKSMSSMVSDTSCTFPSGDGIFWKHWIQTKDGQCGSPLVSTRDGFIVGIHSASNFTNTNNYFTSVPKNFMELLTNQEAQQWVSGWRLNADSVLWGGHKVFMVKPEEPFQPVKEATQL [T44P]	0.0526	0.0452	0.0447	0.044	–	–	0.046	0.0453	0.0496	–	0.026	0.0655	0.0436	0.0319	0.0387	–	0.0319	0.0402	–
MGESLFKGPRDYNPISSSICHLTNESDGHTTSLYGIGFGPFIITNKHLMRRNNGTLVVQSLHGVFKVKDTTTLQQHLVDGRDMIIIRMPKDFPPFPQKLKFREPQREERICLVTTNFQTKSMSSMVSDTSCTFPSGDGIFWKHWIQTKDGQCGSPLVSTRDGFIVGIHSASNFTNTNNYFTSVPKNFMELLTNQEAQQWVSGWRLNADSVLWGGHKVFMVKPEEPFQPVKEATQL [F49M]	0.0624	0.0647	0.0606	0.0594	0.0627	0.0561	0.0658	–	0.0787	0.0538	0.0552	0.0596	0.0603	0.0549	0.0553	0.0406	–	0.0531	0.0692
MGESLFKGPRDYNPISSSICHLTNESDGHTTSLYGIGFGPFIITNKHLARRNNGTLVVQSLHGVFKVKDTTTLQQHLVDGRDMIIIRMPKDFPPFPQKLKFREPQREERICLVTTNFQTKSMSSMVSDTSCTFPSGDGIFWKHWIQTKDGQCGSPLVSTRDGFIVGIHSASNFTNTNNYFTSVPKNFMELLTNQEAQQWVSGWRLNADSVLWGGHKVFMVKPEEPFQPVKEATQL [F49A]	0.0718	–	0.062	0.041	0.0683	0.0723	0.0624	0.0575	0.0562	–	0.045	–	0.0576	0.0554	0.0634	0.0252	0.0556	0.0514	–
MGESLFKGPRDYNPISSSICHLTNESDGHTTSLYGIGFGPFIITNKHLIRRNNGTLVVQSLHGVFKVKDTTTLQQHLVDGRDMIIIRMPKDFPPFPQKLKFREPQREERICLVTTNFQTKSMSSMVSDTSCTFPSGDGIFWKHWIQTKDGQCGSPLVSTRDGFIVGIHSASNFTNTNNYFTSVPKNFMELLTNQEAQQWVSGWRLNADSVLWGGHKVFMVKPEEPFQPVKEATQL [F49I]	0.0698	0.0621	0.0582	0.0613	0.0206	–	0.0662	0.0667	0.0644	0.0341	0.0622	0.0582	0.0635	0.0578	0.051	–	–	0.0571	0.0672
MGESLFKGPRDYNPISSSICHLTNESDGHTTSLYGIGFGPFIITTKHLFRRNNGTLVVQSLHGVFKVKDTTTLQQHLVDGRDMIIIRMPKDFPPFPQKLKFREPQREERICLVTTNFQTKSMSSMVSDTSCTFPSGDGIFWKHWIQTKDGQCGSPLVSTRDGFIVGIHSASNFTNTNNYFTSVPKNFMELLTNQEAQQWVSGWRLNADSVLWGGHKVFMVKPEEPFQPVKEATQL [N45T]	0.0571	0.0741	0.0693	0.0587	0.0589	0.0643	–	0.0511	0.0669	0.06	0.0564	0.0584	0.0494	0.0626	0.0555	–	–	0.0655	0.0351

— the supplement of paper PMC12217912
